The subject of one experiment is SN12C renal. Put plainly: NCI-60 one-dose screen, 48 h (100 = growth as untreated, 0 = no growth, -100 = all killed). The note with it: 2.5 mM.
For a further experiment, the system named is UO-31 renal. The description is as above. To be noted: 2.5 mM.

The structures appear in SMILES notation. The source holds several records for some structures; these can differ, active in one and inactive in another.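 Plates (96-well) were seeded with cells, treated with compound at one concentration, and incubated for 48 hours before percent growth was determined.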 Not every entry of the source has a single result; some have several. This is not the full list of results. There may be further records. How the source made its calls: active means growth percent below 10; inactive means the rest. The screen tested this drug many times, at the concentration stated with the values; each value is one run. Brackets with × say how often a value occurs here.

In the case of `O=c1[nH]cc(F)c(=O)[nH]1`, the growth result in the experiment with SN12C renal (runs of 1992) was “inactive: 32.2 (4×), 20.8, 32.3, 31.8 (3×), 33.9 (2×), 30.5 (3×), 22.2, 23.7 (2×), 25.9, 80.4, 17.1, 32.6 (2×), 36.7, 31.5, 31.6, 45.7, 63.6, 49, 36.9, 25.4, 48.9, 16.4 (2×), 32.9 (2×), 38.1, 17.2, 22.7, 27.6, 31.4 (3×), 34.6, 22.9, 27.2, 28.7, 43.7, 30.6 (2×), 28.2 (2×), 30.2 (3×), 31.9, 24.9, 32.5, 26.3, 21.2, 34.7, 39.4, 22.5, 11.9, 22.3, 23.3, 31.1, 28.4, 26.8, 28.5 (3×), 25, 32.8, 37.1, 15, 12.1, 34.3, 25.5, 61.9, 35.2, 23.1 (2×), 28.6, 24.8, 36.6, 12.5, 12.4, 21.5, 35.4, 28.1, 24.2, 10.4, 24.1, 37.9, 30.3, 31.3, 34.4, 39.3, 31.7, 48.3, 39.9, 33, 35.5, 43.8, 24.3, 38.7, 32.4, 67.5, 23.6, 40.5, 40.3% and active: 7.67, 0.225, 9.69, 6.82, 6.58%”; in the experiment on SN12C renal (runs of 1993), “inactive: 33, 28.1, 29.1, 20.5, 37.2, 32.7 (2×), 35.7 (2×), 35.9, 32.3, 20.6, 26.1, 31.1, 36.8, 27.6, 38.2, 44, 30.4, 36.2, 25.8, 33.6, 32.4, 35.8, 41.4, 17.3, 33.8, 52.7, 29.8, 34.7, 12.5, 33.4, 40, 25.7, 43, 40.7, 49.4, 84.9, 38, 35.6, 39.5, 32, 26.3, 51.5, 26.9, 34.4, 35.5, 37.3%”; in the experiment on SN12C renal (runs of 1994) it was “inactive: 31.5 (2×), 26.8 (2×), 13.2, 25.6, 31.1, 34.1, 19.8, 20.9, 30.9, 22, 15.1, 17.6, 34.6, 21, 34.5, 29.6, 26.7, 32.7, 26, 22.7, 33, 50.3, 22.8, 40.6, 34, 32.5, 31.9, 21.4, 53.6%”; in the experiment with SN12C renal (runs of 1995), “inactive: 36.2, 32.4, 23.8, 12.4, 10.1, 32.8, 35.5, 14.1, 38.6, 27.7, 39.4 (3×), 23.6, 23.5, 33.3, 24.5, 17.7, 27.5 (2×), 31.2, 33.8, 19.1, 29, 39.8, 41.1, 27.4, 25.4, 36.6, 30.4, 20.6, 38.2, 30.5, 33.9, 38.5, 19, 30.8, 39.3, 34.1% and active: -22.2%”; with SN12C renal (runs of 1996), “inactive: 40.5, 38.8, 27.9, 32.4, 52, 21.3, 27.1, 20.5, 36.9, 25.5, 20.3, 47.8, 43.8, 29.8, 34.9, 20.7, 27.5 (2×), 45.4, 26.6, 28.8 (2×), 52.2, 46.9, 49.1, 24.9, 35.6, 47.7, 39.5, 24.5, 28.3, 33.1, 38.9, 30, 22.8, 34.8, 31.3, 41.5, 43.3, 29.6, 29.7, 26.2, 43.4, 32.5, 30.1, 19.2, 39.3, 24, 32.8, 58.2, 23.8, 35.1, 36.1, 31.9, 40% and active: -2.86%, -97.6%”; in the experiment with SN12C renal (runs of 1997), “inactive: 33.4, 39.2, 30.9, 40.1, 47.4, 24.9, 11.6, 30.2, 22.1, 52.8, 27.7, 22.5, 59, 24.6, 29.7, 45, 20.1, 46.8, 33.7, 29.6, 22, 32.4, 62, 37.9 (2×), 23.9, 27.3, 53, 31.8, 40.7, 20.9, 23.5, 11.5, 37.7, 47.5, 27.1, 32.6, 34.7, 12.2% and active: -7.01%”. In addition, the growth entry was “inactive: 30.9, 47.4, 36.5, 53, 40.6, 15.7, 19.6, 35.7, 30.3, 23.7, 32, 24.1, 35.8, 58.8, 21.4% and active: -27.3, -2.68, -3.71, -23.4%” in the experiment with SN12C renal (runs of 1998); “active: -68, -0.891, 3.6, -39.5, 1.88, 0.39, 0.562, 0.906, 0.627, -22, 3.14, -48.4, 2.25% and inactive: 25.6%, 31.5%, 21.9%” with SN12C renal (runs of 1999); “active: -47.4, 2, 1.59, 1.3%” in the experiment with SN12C renal (runs of 2000); “active: -74.4, -72.2, -76.7, -75.8, -73.7, -70.5, -83.4, -38.1, -68, -50.1, -48.8, -65.2, -48.3, -55.1, -60, -76.6, -49.5, -43.8, -55.6, -36.1%” in the experiment on UO-31 renal (runs of 1991); “active: -82.1, -55.8, -72.1, -21.3, -11.7, -31.9, -48.5, -60.6, -64.4 (3×), -63 (2×), -58.7, -75.3, -69.3, -52.5, -77.1, -71.5, -45.2 (2×), -68.7 (2×), -54.1, -83.2, -58.4, -59.8 (2×), -61.2, -72.4, -68, -48.9, -50, -45, -79.5, -74.1 (2×), -70, -45.7 (2×), -66.5, -45.4, -52.7 (2×), -54.7, -34.1, -64.2 (2×), -51.6, -65.2, -47.4, -47.9, -71.4, -53.5, -65.3, -61.9, -68.2, 5.94, -63.1, -43.9, -47.7, -46.6, -45.3, -58, -49, -57.2, 4.55, -60.5, -70.8, -48.6, -55.5, -47.8, -53.6, -25.1, -58.6, -7.03, 2.65, 1.32, -2.83, -55.9, -47.3, -60.7 (2×), -65.1, -68.6, -81.6, -72.3 (2×), -55.3, -87.2, -61, 8.55, -66.6, -73.7, 9.33, -61.4, -22.8, -74.8, -59.5, -57.8, -50.3, -55.1, -69.4, -84.7, -64, -10.4% and inactive: 42.8, 14.8, 13.9, 15.8, 15.7, 22.4, 15.2%” in the experiment with UO-31 renal (runs of 1992); “active: -29.4, -52.7, -49.2 (3×), -73, -34.3 (2×), -46.2, -20.6, -39.2, -56.6, -51.2, -66.2, -82.7, -81, -37.1, 2.31, -74.8, -71.4, -66.7, -63, -81.4, -70.2, -47.6, -42.6, -52.1, -83.6, -70.7, -90.4, -50.4, -30.9, 2.28, -82.1, -60.6, -75.3, -26.5, -36.8, -71, -40.5, -3.84, -53.3, -64.9, -22.8, -42.8% and inactive: 102%, 126%” in the experiment on UO-31 renal (runs of 1993). For the same compound, the growth entry was “active: -19.8, -33.7, 3.49, -11.1, -29.9, -64.8, -41.8, -69.7, -50.3, -22.7, 2.63, -27.2, -15.9, -36 (2×), -24.2, -25, -10.7, -29.1, 1.7, -50.9, -28.6, -50, -69.8, -75.3, -59.9, -78.7, -58.1, -22.3, -82.8, -73.7, -56.9, -40.1% and inactive: 12%” in the experiment with UO-31 renal (runs of 1994); “active: -31.6, -71.2, -63.8 (2×), -50, -57.1, -48.1, -83.4, -31.9, -41.5, -59.1, -48.6, -83.3, -63.5, -49.5, -56, -61.4, -71.1, -51.2, -59.6, -80.9, -69.8, -84.8, -10, -62.7, -79.8, -14.6, -21.1, -29.9, -66.6, -45.3, -65, -67.6, -72.1, -56.2, -37.3, -58.8, -40.5, -70.5, -69.9%” with UO-31 renal (runs of 1995); “active: -22.9, -62.1, -63, -45.4, -56.7, -50.5 (2×), -44.2, -61.6, -81.7, -50, -14.4, -63.9, -73.4, -77.4, -22.8, -44.3, -72.5, -45.2 (2×), -18.1, -32.5 (2×), -53.7, -72, -63.6, -13.8, 4.41, -23.3, -9.48, -38.4, -28.5, -65, -73, -20.7, -54.9, 0.26, -32.8, -42.5, -57.7, -76.7, -31.3, 8.14, -40.4, 0.0686, -27.7, -71.6, -62.3, 9.28, -24.9, -41.8, -45.7, -66.1, -63.5, -36.6, -37.4, -54.8%” with UO-31 renal (runs of 1996).

Values taken from PubChem BioAssay (NCI).
